{"source": "PubChem BioAssay AID2147", "about": "(National Center for Advancing Translational Sciences (NCATS), 2009)", "note": "The whole screen tested about 230,000 compounds, of which about 3,600 (1.6%) were called active. The inconclusive results got no clear call from the source; some entries with a clear call stand among them for comparison. Calls come from the whole dose curve; as a rule, active = well fitted inhibition curve with a large enough effect (not every such curve was filed as active); inconclusive = small, poorly fitted or top-dose-only effect, or another doubt; inactive = no such curve, though single readings can be large or run the other way. A potency beside an inconclusive call is a rough fit, not a confirmed value. Note: nearly all actives have a fitted effect of over 50% in size. Potency is the fitted concentration of half-maximal effect; tags give direction and shape of the fitted curve."}
{"target": "Lysine-specific demethylase 4E (Homo sapiens) (UniProt B2RXH2)", "sequence (B2RXH2 whole entry, looked up, the tested form may be a part)": "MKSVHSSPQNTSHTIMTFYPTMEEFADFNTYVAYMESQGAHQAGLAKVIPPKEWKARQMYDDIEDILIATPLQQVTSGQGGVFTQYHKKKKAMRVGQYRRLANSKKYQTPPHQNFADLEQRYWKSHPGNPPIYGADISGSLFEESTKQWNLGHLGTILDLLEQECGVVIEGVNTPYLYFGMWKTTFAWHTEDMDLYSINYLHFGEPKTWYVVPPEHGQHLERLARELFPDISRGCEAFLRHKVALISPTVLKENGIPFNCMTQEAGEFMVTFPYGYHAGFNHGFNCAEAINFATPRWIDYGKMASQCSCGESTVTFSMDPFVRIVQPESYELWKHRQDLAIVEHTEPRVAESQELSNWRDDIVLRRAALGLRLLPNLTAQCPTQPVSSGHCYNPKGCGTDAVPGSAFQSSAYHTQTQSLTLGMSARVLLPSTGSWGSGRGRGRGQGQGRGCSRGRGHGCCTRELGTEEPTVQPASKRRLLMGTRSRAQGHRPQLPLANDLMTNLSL", "experiment": "qHTS Assay for Inhibitors of Human Jumonji Domain Containing 2E (JMJD2E)", "conditions": "JMJD2E catalytic domain, FDH-coupled NADH fluorescence (FDH is formaldehyde dehydrogenase); series mostly up to 57.1 µM"}
{"molecule": "CCCn1c(=O)c(-c2nc3ccccc3[nH]2)c(O)c2ccccc21", "Potency": "inconclusive: 25.1 µM [inhibitor, partial curve]"}
{"molecule": "CCOc1ccc(-n2c(-c3ccco3)n[nH]c2=S)cc1", "Potency": "inconclusive: 28.2 µM [inhibitor, partial curve]"}
{"molecule": "CCN(CC)C(=O)c1cc2c(=O)n3cccc(C)c3nc2n1C", "Potency": "inconclusive: 25.1 µM [inhibitor, partial curve]"}
{"molecule": "CSCC(=O)Nc1cc(C)on1", "Potency": "inactive"}
{"molecule": "CN(CC(=O)NCc1ccco1)S(=O)(=O)c1ccc2c(c1)c(=O)n(C)c(=O)n2C", "Potency": "inconclusive: 39.8 µM [inhibitor, single point]"}
{"molecule": "CCOC(=O)N1CCC(N2CCN(S(=O)(=O)c3ccc(Cl)cc3)CC2)CC1", "Potency": "inconclusive: 39.8 µM [inhibitor, single point]"}
{"molecule": "Cc1ccc2cccc(OCCOCCOc3ccccc3Br)c2n1", "Potency": "inconclusive: 35.5 µM [inhibitor, partial curve]"}
{"molecule": "COCCCNC(=S)N/N=C/c1ccc(N(C)C)cc1", "Potency": "inconclusive: 31.6 µM [inhibitor, partial curve]"}
{"molecule": "Cc1sc2ncnc(Sc3nnnn3-c3ccccc3)c2c1C", "Potency": "inconclusive: 35.5 µM [inhibitor, partial curve]"}
{"molecule": "CC(=O)Nc1ccc(-c2cn3cc(C)ccc3n2)cc1", "Potency": "inconclusive: 28.2 µM [inhibitor, partial curve]"}
{"molecule": "O=C(NCC12CC3CC(CC(C3)C1)C2)c1nc2ncccn2n1", "Potency": "inconclusive: 31.6 µM [inhibitor, partial curve]"}
{"molecule": "COc1ccccc1NS(=O)(=O)c1cccc(C(=O)N/N=C/c2ccc(C)o2)c1", "Potency": "inconclusive: 28.2 µM [inhibitor, single point]"}
{"molecule": "O=C(O)Cc1ccc2sc(-c3ccccc3)nc2c1", "Potency": "inconclusive: 31.6 µM [inhibitor, partial curve]"}
{"molecule": "COC(=O)CSc1nc(C)cc(C)n1", "Potency": "inactive"}
{"molecule": "O=C(/C=C/c1ccc(F)cc1)NC(=S)NNC(=O)c1cnccn1", "Potency": "inconclusive: 35.5 µM [inhibitor, single point]"}
{"molecule": "NC(=O)c1ccccc1N/C=C1\\CCCCC1=O", "Potency": "inconclusive: 31.6 µM [inhibitor, partial curve]"}
{"molecule": "Oc1ccc2ccccc2c1C=NC1CCCCC1", "Potency": "inactive"}
{"molecule": "CN(C)S(=O)(=O)c1cccc(NC(=S)Nc2cccc3cnccc23)c1", "Potency": "active: 28.2 µM"}
{"molecule": "COc1ccc2nc(NNC(=O)C3COc4ccccc4O3)sc2c1", "note": "(stereo not given)", "Potency": "inconclusive: 39.8 µM [inhibitor, single point]"}
{"molecule": "CCOc1ccc(/C=C2\\CCc3ccccc3C2=O)cc1", "Potency": "inconclusive: 28.2 µM [inhibitor, single point]"}
{"molecule": "Cn1cccc1C(=O)NC(=O)COC(=O)CNC(=O)c1ccc(Cl)cc1Cl", "Potency": "inconclusive: 10 µM [inhibitor, partial curve]"}
{"molecule": "Cc1cccc(-n2c(=O)[nH]c3c(C(N)=O)nc(-c4ccccc4Cl)nc32)c1", "Potency": "active: 1.78 µM"}
{"molecule": "Cc1nc(-c2ccccc2)sc1-c1nc(-c2ccncc2)ncc1S(=O)(=O)c1ccccc1", "Potency": "inconclusive: 35.5 µM [inhibitor, single point]"}
{"molecule": "O=C(CCS(=O)(=O)c1ccccc1)Nc1ccc(-c2nc3ccccc3s2)cc1", "Potency": "inconclusive: 31.6 µM [inhibitor, partial curve]"}
{"molecule": "CCOP(=O)(OCC)C(Nc1cccc(C(F)(F)F)c1)c1ccc(Br)cc1", "note": "(stereo not given)", "Potency": "inactive"}
{"molecule": "CC(=O)Nc1ccc(NC(=O)c2nc(-c3ccccc3)oc2C)cc1", "Potency": "inconclusive: 35.5 µM [inhibitor, single point]"}
{"molecule": "Cc1cc(C(=O)NN)c(Cl)cc1Cl", "Potency": "inactive"}
{"molecule": "COc1c(Cl)ccc(Cl)c1C(=O)O", "Potency": "inconclusive: 20 µM [inhibitor, partial curve]"}
{"molecule": "Oc1ccc(CN2CCN(c3ccccc3)CC2)c2cccnc12", "Potency": "active: 17.8 µM"}
{"molecule": "COc1ccccc1-c1cc(C(=O)NCc2ccc(Cl)cc2)no1", "Potency": "inconclusive: 39.8 µM [inhibitor, single point]"}
{"molecule": "CCOC(=O)N1CCc2c(sc(NC(=O)c3ccc(Cl)s3)c2C(N)=O)C1", "Potency": "inconclusive: 39.8 µM [inhibitor, single point]"}
{"molecule": "CC(=O)Nc1ccc(NCN2C(=O)[C@@H]3[C@H]4CC[C@H](C4)[C@@H]3C2=O)cc1", "Potency": "inactive"}
{"molecule": "COc1ccccc1N1C(=O)[C@@H]2[C@H](C1=O)[C@H](C(=O)c1ccc(OC(C)=O)cc1)N1N=CC=C[C@@H]21", "Potency": "inactive"}
{"molecule": "C=CCNC(=O)CN(c1cc(Cl)ccc1OC)S(=O)(=O)c1ccc(C)c([N+](=O)[O-])c1", "Potency": "inconclusive: 15.8 µM [inhibitor, partial curve, poor fit]"}
{"molecule": "CCCCCCC(=O)Cc1cc(OC)c(OC)cc1C=C(C(=O)OCC)C(=O)OCC", "Potency": "inconclusive: 25.1 µM [inhibitor, single point]"}
{"molecule": "O=P(c1ccccc1)(c1ccccc1)C(O)c1ccncc1", "note": "(stereo not given)", "Potency": "inconclusive: 28.2 µM [inhibitor, single point]"}
{"molecule": "CCc1c(-c2ccccc2)nc2nc(C)c(C)nn12", "Potency": "inconclusive: 28.2 µM [inhibitor, partial curve]"}
{"molecule": "O=C(/C=C/c1ccco1)NC1=NCCS1", "Potency": "inconclusive: 39.8 µM [inhibitor, single point]"}
{"molecule": "COc1ccc(CC(=O)Nc2ccc(C(=O)Nc3ccccc3C(=O)O)cc2)cc1OC", "Potency": "inactive"}
{"molecule": "CN(C)c1ccc(-c2noc(-c3ccccc3O)n2)cc1", "Potency": "inconclusive: 7.94 µM [inhibitor, single point]"}
{"molecule": "COC(=O)C1=C(C)N(Cc2ccc(C)cc2)C(=O)/C1=C\\c1cc(OC)c(OC)c(OC)c1", "Potency": "inactive"}
{"molecule": "C=CCn1c(SCC(C)=O)nnc1-c1cc(-c2ccccc2)sc1N", "Potency": "inconclusive: 25.1 µM [inhibitor, single point]"}
{"molecule": "CCNS(=O)(=O)c1cc(OC)c(Cl)cc1OC", "Potency": "inconclusive: 28.2 µM [inhibitor, partial curve]"}
{"molecule": "CC(C)C[C@H](NC(=O)c1nc[nH]c1C(=O)N1CCN(c2ccccc2)CC1)C(=O)OCc1ccccc1", "Potency": "inactive"}
{"molecule": "CCOC(=O)N1CCC(NC(=S)Nc2ccc3nc(N4CCN(CC)CC4)cc(C)c3c2)CC1", "Potency": "inconclusive: 31.6 µM [inhibitor, partial curve]"}
